Results: the RNAGym collection of RNA variant scans (doi:10.1073/pnas.2313332121)
Variants at the background level are over-represented here.

B1: TPR 5TU (parent)
chain: GGAUCUUCUCGAUCUAACAAAAAAGACAAAUCUGCCACAAAGCUUGAGAGCAUCUUCGGAUGCAGAGGCGGCAGCCUUCGGUGGCGCGAUAGCGCCAACGUUCUCAACUAUGACACGCAAAACGCGUGCUCCGUUGAAUGGAGUUUAUCAUG

Variants of: B1
Experiment: polymerase ribozyme fitness, log enrichment relative to wild type (log ratio); higher = more active; in vitro selection for triplet polymerase activity
How it was run: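 The heterodimeric triplet polymerase ribozyme's subunits were each mutagenized into PCR-built libraries and transcribed. Every library was selected once, in triplicate, by annealing with a biotinylated primer, the partner subunit and triplets, incubating frozen at −7 °C, gel-excising extended constructs, capturing on streptavidin beads and running RT-PCR. Input and output libraries were Illumina-sequenced, with genotypes kept only at ≥10 input reads and ≥1 read per output. Fitness, from inverse-variance-weighted replicate averages, is the base-2 logarithm of genotype enrichment over wild-type enrichment.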

Polymerase ribozyme fitness (log ratio), ≤ -4.2:
A39G U78C G86C A107G C116A
A41C A138U
A40G C54A C87U U101G U134G
A40C A49G A64G C85U A137G G152A
C38U C43G C85A A110U A113G
A39C A47G G50C A60C G67U G71A G84A C99U A119C
C38G G58C A64C C79A U146G
A40U G86U C99A C149A U151C
A41C A52U A73G C87U G141A
A37C G68A G71C C85A A119U
A40U G74C C85G C103G A122C G124A U144C
C38U G50A C93G C125A U144G
A41C C51U G59A C63U C79U G86U C123U G143C
A37C G42C G74C C85G C96A A97G U134A U148C
A37C G74A A91G C95U U135G A150U
A37U A64C C85A
A39G A40G U45G U53A G92A
C36U C96A U102G
A39U A73U C76G G86A G140U
C36U G84A A107G
A39G A40U A41C C76A G94C
A37C G58C G70C C85G C149A
A39G U55A A73C C87G A110U G136U
A37C A52G C63U G86A A138U U145A
A40C U55A A64U G86A
A39C G59C G94C A106U A121G U151G
A39G C87A A106C A137G G143U
A40C G50A G58C C116A U144G
C36U C43U C57A G68A
C36U G48U G74A U90G C93A
A40G A49G C69U U82A C103A C105A A107U C123A A137G U139G
C38U C87A
A39C G58C C131G
A41C G70A U77G G84A C87U A110G A113G G136A
A39U G59C G71C A91G A115U A120U G141A
C38A G86A C108A
C36U U45A A52G G86A C87A C93U A107U
A40U A66C G80A G92A A107U A110C A147U
A37C C75A G84C A147U
A40U G59C C69G G81C C108U U135A
A41C C85U C96A C105G C125U
A37C A49C C87A C103G C105U U146A
C38A A39C A41C G65C C75U U109G
A37U G42C C57A G94C C105G G141U
A41C G84U A89G U102G A142G
A39C C51U A66G U82G G84U U101C
A40G U44G U56C G65C U90A C96U G136A
A39G G48A G84C
A40C U55A G140U U148G
A39G A40U A41C G48A C95U C131G U148A
A39C C72A U90G A91G U135A
A39G U55A G67U G80C C85U C87A G126A U139G
A40U U61A U77G C114A C132U
C38U G80U C96G A142C U148G
A40C C57U C69A C85U C95U C125U G140A U146A
A39U G50A U53G C54G C93U A138U G152U
A40C G42C A49G G58U G83C G92A A107C G141C C149G
A39U G48U C85U A150G
C38U C85U G88U U102C
A39G U82G A91G A107U G126C
A39C C93A U101G
A39U G50C G71C C72U G83A
A39C G50A A98G A107C G140A
A40C A49G C87U G128C
A39U A41G C54A G80A G94C A98G U139G G152A
A37U G59A C69G A73U C76A G84A C96U A138G U146C
A40G G42C C54A U82G G84A A98C
A37C A66G C85A G141C
C38A C54G G84U C87U G92C G126U
A39U A107G U144G
A39U G88U
A39C G70A G80A C99G A119U
A40U G59A C79G G84A G140A A147U
A39U U45A A52C A60U
A40G A47U G50C G65U G80C C87G U104G
A40C C72U G86C G143U
A41C G48A C99G C114G
A40G G46A G50C G70C C87U A138C
A39C G80A C129A G136U
C38G A49C C54U G67C C75U C87A C99G U146C
A39U U44G G59C A115C
A37C G84U C99U C103U G140C
C36U A52G C54A A73G G94U A138U
A40C C79U C93G G100U A147C
A39G A41C C43G G59C C69A G94U G100U
A40U G67U C69A C87A C129A
A40U C95U C99U C105A A106G A122C A138C G141A
A39C C54G A97G C114G
A40C C75U C87G A106C C123A U146G U148G
A41C G62C C87G A110C A113U A122G G136U
A39C C75A C93U
C36U C93G U148C
C38G U82C C95G G140C A142G
A41C G42A G92A A115G U151G
C36U U55G G83A C93G C108A
A39C G71A U101G G133C
A39G A91C C105U G128C
A37U U53G G88U A106U
A37G U45C G46C A60C C118G C125A G143C
A39U A52C C57G G70A C93U C99G A115G U134G
A41C G88U C96G C103A
C38U U56G G83C C129G
A39C C76G C93U A142C C149U
A41C C57U A115C C125U G133U U139A A142C
A37C C43U A52C G84A C129A G133U U146G
A39C C99G A137G U144A
A40G C87G A89G
C38U U77C G92A
A39G C43U C93G C103U
A40G A60G C76G C79U G86U G94A C108G
A40C C79A C99U G126A U139A A147U
C36U U53G G86A G141U
A40G A52G A73C C95G
C36U G94A C129U A150C
A41C C43U C57A C76A U78C G92A
A39C A49U C76A A121G
A41C G65A G68A U101A U130G
A40G A113U U148G
A40C A49C G84A C93G A150U
A39U G68C C79G G86U C114U A147C
A37U C72G C85G
A40U U45A G70A U77C G84A G100U U102G G140C
A37C G59U A66G U90C
A39G A49U U53C U90G C103G
C38A A49C C57G C95A C123U
A40G C54G U61A C75G G92A U144A
A40C G88U C99U U139C G141A C149G
A37G G70A G92C G140A
A37C A49C G83U C85A
A40U G42U U55C U61A C118U
A37C A49G U56A C57A G71A
A39C U56A A66G G67A A106G A110G A122U U127A
C38U A52C C79A
C38U G59A A73C G83U G140U
A37U G83A A113C
C38A C95A C105G U127C
C38U C93A A113G C114A A150G
A41C G50C A66C A91G A97G G140U
A40U A64G U102A U111A U134C
C38U C76U U82C G86U A98C A121C A142C
C38A A49U C93G U104A A122G
A39G U78A C95G U104G
A39U G46A G92U C93G G141C
A39G U53A A66U A73G C87U C96U
C38U C54U C57U G84U U139G U146G G152U
C38A A47U G67U
A39C A73C G94A C99G C116U A121C
A37C A40C G50C U56A C79U U135G
C38A A98G A120C U139A U148A
C38U A49C G59A G65U
A40G A49C A64C C96A A97U G136A
A39G C51G C96U A115C U134C
A40U A49U U53G U56A G62C C72U G84A
C38G U53C G67U A97U A137U
C36U G84U U111A C116U
A39U G80C G94A C118U
A41C A91U G92U A98G
A40G G46A C57G C85U C118G
A39G A41U A49G C54A C87U C118U G143C A147C
C38U A41C A52G U53C G67C C96G C131G G152C
A37G A39G U61C A107U
A37C G67U A73C U90C G94C G140U
A37C C75A C76U U144C
C38G G84U G88A U90C A97C U135G A150U
A41C C54G U77A A91G C105G G126A G136A A137G
A40C U53C G94U C95U G140U G143C
A37C C54A G86U G112C U135C A147C U151A
